# Results reported in the supplement of paper PMC8728848.
# The list shows a part of the results.
# B1: OrfX (Escherichia coli), Q9X4B6_ECOLX (protein)
# chain: MIKIARIAVTLGLLSSLGAQAYAAGLVVNDNDLRNDLAWLSDRGVIHLSLSTWPLSQEEIARALKKAKPSYSSEQVVLARINQRLSALKADFRVTGYTSTDQPGTPQGFGQTQPADNSLGLAFNNSGEWWDVHLQGNVEGGERISNGSRFNANGAYGAVKFWNQWLSFGQVPQWWGPGYEGSLIRGDAMRPMTGFLMQRAEQAAPETWWLRWVGPWQYQISASQMNQYTAVPHAKIIGGRFTFTPFQSLELGASRIMQWGGEGRPQSFSSFWDGFTGHDNTGTDNEPGNQLAGFDFKFKLEPTLGWPVSFYGQMVGEDESGYLPSANMFLGGVEGHHGWGKDTVNWYVEAHDTRTNMSRTNYSYTHHIYKDGYYQQGYPLGDAMGGDGQLIAGKVELITEDNQRWSTRLVYAKVNPENQSINKAFPHADTLKGLQLGWSGDVYQSVRLNTSLWYTNANNSDSDDVGASAGIEIPFSL
# How the values were obtained:
# Assay in all cases: glycan array binding signal (z-score within array); higher = stronger binding
# Conditions in all cases: glycan notation: IUPAC condensed, linker removed
# [1] = biological target: Fuc(a1-2)Gal
# Outline: (§1)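 Arrays were curated from the Consortium for Functional Glycomics database, 3228 in total, and kept only where the protein sequence was available. Binding is expressed as a within-array Z-score. This score was averaged across arrays of the same protein sequence at different concentrations or buffers and across linkers, and negative values can be read as non-binding.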
# [2] = biological target: Fuc(a1-2)Gal(b1-3)GalNAc
# Outline: as §1
# [3] = biological target: Fuc(a1-2)Gal(b1-3)GalNAc(a1-3)[Fuc(a1-2)]Gal(b1-4)Glc
# Outline: as §1
# [4] = biological target: Fuc(a1-2)Gal(b1-3)GalNAc(a1-3)[Fuc(a1-2)]Gal(b1-4)GlcNAc
# Outline: as §1
# [5] = biological target: Fuc(a1-2)Gal(b1-3)GalNAc(b1-3)Gal
# Outline: as §1
# [6] = biological target: Fuc(a1-2)Gal(b1-3)GalNAc(b1-3)Gal(a1-4)Gal(b1-4)Glc
# Outline: as §1
# [7] = biological target: Fuc(a1-2)Gal(b1-3)GalNAc(b1-4)[Neu5Ac(a2-3)]Gal(b1-4)Glc
# Outline: as §1
# [8] = biological target: Fuc(a1-2)Gal(b1-3)GlcNAc
# Outline: as §1
# [9] = biological target: Fuc(a1-2)Gal(b1-3)GlcNAc(b1-2)Man(a1-3)[Fuc(a1-2)Gal(b1-3)GlcNAc(b1-2)Man(a1-6)]Man(b1-4)GlcNAc(b1-4)GlcNAc
# Outline: as §1
# [10] = biological target: Fuc(a1-2)Gal(b1-3)GlcNAc(b1-2)Man(a1-3)[Fuc(a1-2)Gal(b1-3)GlcNAc(b1-2)Man(a1-6)]Man(b1-4)GlcNAc(b1-4)[Fuc(a1-6)]GlcNAc
# Outline: as §1
# [11] = biological target: Fuc(a1-2)Gal(b1-3)GlcNAc(b1-3)Gal(b1-4)Glc
# Outline: as §1
# [12] = biological target: Fuc(a1-2)Gal(b1-3)GlcNAc(b1-3)GalNAc
# Outline: as §1
# [13] = biological target: Fuc(a1-2)Gal(b1-3)GlcNAc(b1-3)[Fuc(a1-2)Gal(b1-3)GlcNAc(b1-6)]GalNAc
# Outline: as §1
# [14] = biological target: Fuc(a1-2)Gal(b1-3)GlcNAc(b1-3)[Fuc(a1-3)[Gal(b1-4)]GlcNAc(b1-6)]Gal(b1-4)Glc
# Outline: as §1
# [15] = biological target: Fuc(a1-2)Gal(b1-3)GlcNAc(b1-3)[Gal(b1-4)GlcNAc(b1-6)]Gal(b1-4)Glc
# Outline: as §1
# [16] = biological target: Fuc(a1-2)Gal(b1-3)GlcNAc(b1-3)[Neu5Ac(a2-6)Gal(b1-4)GlcNAc(b1-6)]Gal(b1-4)Glc
# Outline: as §1
# [17] = biological target: Fuc(a1-2)Gal(b1-3)GlcNAc6S
# Outline: as §1
# [18] = biological target: Fuc(a1-2)Gal(b1-3)[Fuc(a1-4)]GlcNAc
# Outline: as §1
# [19] = biological target: Fuc(a1-2)Gal(b1-3)[Fuc(a1-4)]GlcNAc(b1-2)Man(a1-3)[Fuc(a1-2)Gal(b1-3)[Fuc(a1-4)]GlcNAc(b1-2)Man(a1-6)]Man(b1-4)GlcNAc(b1-4)GlcNAc
# Outline: as §1
# [20] = biological target: Fuc(a1-2)Gal(b1-3)[Fuc(a1-4)]GlcNAc(b1-2)Man(a1-6)[Fuc(a1-2)Gal(b1-3)[Fuc(a1-4)]GlcNAc(b1-2)Man(a1-3)]Man(b1-4)GlcNAc(b1-4)[Fuc(a1-6)]GlcNAc
# Outline: as §1
# [21] = biological target: Fuc(a1-2)Gal(b1-3)[Fuc(a1-4)]GlcNAc(b1-3)[Fuc(a1-3)[Gal(b1-4)]GlcNAc(b1-6)]Gal(b1-4)Glc
# Outline: as §1
# [22] = biological target: Fuc(a1-2)Gal(b1-3)[Fuc(a1-4)]GlcNAc(b1-3)[Gal(b1-4)GlcNAc(b1-6)]Gal(b1-4)Glc
# Outline: as §1
# [23] = biological target: Fuc(a1-2)Gal(b1-4)Glc
# Outline: as §1
# [24] = biological target: Fuc(a1-2)Gal(b1-4)Glc6S
# Outline: as §1
# [25] = biological target: Fuc(a1-2)Gal(b1-4)GlcNAc
# Outline: as §1
# [26] = biological target: Fuc(a1-2)Gal(b1-4)GlcNAc(b1-2)Man
# Outline: as §1
# [27] = biological target: Fuc(a1-2)Gal(b1-4)GlcNAc(b1-2)Man(a1-3)[Fuc(a1-2)Gal(b1-4)GlcNAc(b1-2)Man(a1-6)]Man(b1-4)GlcNAc(b1-4)GlcNAc
# Outline: as §1
# [28] = biological target: Fuc(a1-2)Gal(b1-4)GlcNAc(b1-2)Man(a1-3)[Fuc(a1-2)Gal(b1-4)GlcNAc(b1-2)Man(a1-6)]Man(b1-4)GlcNAc(b1-4)[Fuc(a1-6)]GlcNAc
# Outline: as §1
# [29] = biological target: Fuc(a1-2)Gal(b1-4)GlcNAc(b1-2)[Fuc(a1-2)Gal(b1-4)GlcNAc(b1-4)]Man(a1-3)[Fuc(a1-2)Gal(b1-4)GlcNAc(b1-2)Man(a1-6)]Man(b1-4)GlcNAc(b1-4)GlcNAc
# Outline: as §1
# [30] = biological target: Fuc(a1-2)Gal(b1-4)GlcNAc(b1-3)Gal(b1-4)GlcNAc
# Outline: as §1
binder,measurement,setting,value
B1,glycan array binding signal (z-score),[1],-0.19
same,glycan array binding signal (z-score),[2],-0.156
same,glycan array binding signal (z-score),[3],-0.28
same,glycan array binding signal (z-score),[4],-0.271
same,glycan array binding signal (z-score),[5],-0.037
same,glycan array binding signal (z-score),[6],-0.087
same,glycan array binding signal (z-score),[7],-0.21
same,glycan array binding signal (z-score),[8],-0.12
same,glycan array binding signal (z-score),[9],-0.1
same,glycan array binding signal (z-score),[10],-0.201
same,glycan array binding signal (z-score),[11],-0.116
same,glycan array binding signal (z-score),[12],-0.344
same,glycan array binding signal (z-score),[13],-0.33
same,glycan array binding signal (z-score),[14],-0.181
same,glycan array binding signal (z-score),[15],-0.005
same,glycan array binding signal (z-score),[16],-0.225
same,glycan array binding signal (z-score),[17],0.028
same,glycan array binding signal (z-score),[18],-0.033
same,glycan array binding signal (z-score),[19],1.12
same,glycan array binding signal (z-score),[20],0.679
same,glycan array binding signal (z-score),[21],-0.249
same,glycan array binding signal (z-score),[22],-0.181
same,glycan array binding signal (z-score),[23],-0.225
same,glycan array binding signal (z-score),[24],-0.115
same,glycan array binding signal (z-score),[25],-0.223
same,glycan array binding signal (z-score),[26],-0.049
same,glycan array binding signal (z-score),[27],-0.214
same,glycan array binding signal (z-score),[28],-0.113
same,glycan array binding signal (z-score),[29],-0.469
same,glycan array binding signal (z-score),[30],-0.191
